Laboratory results as given in PubChem BioAssay AID1479 (National Center for Advancing Translational Sciences (NCATS), 2009).
Where “and” joins values, the source holds several entries; their conditions need not be identical. Equal entries are not always repeated. In all, about 280,000 compounds went through this assay and about 820 (0.29%) were called active. Another 1% or so got no clear call; they are omitted. Calls come from the whole dose curve; as a rule, active = well fitted curve in either direction with a large enough effect; inconclusive = small, poorly fitted or top-dose-only effect; inactive = flat fitted curve, though single readings scatter. The entries are a selection whose mix differs from that of the whole data set. Some compounds were tested as several samples or in several runs, with calls that do not always agree.

assay: Total Fluorescence Counterscreen for Inhibitors of the Interaction of Thyroid Hormone Receptor and Steroid Receptor Coregulator 2; settings: TRb/SRC2 Texas Red total fluorescence interference; series mostly up to 106 µM; fluorescence change, negative = quenching: at the top concentration
Summary of the method: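 Human TRb ligand-binding domain at 0.6 uM with 20 nM Texas Red SRC2 peptide in Tris buffer containing 1 uM T3 and 5% DMSO, incubated with compound 5 h at ambient temperature. Total fluorescence (555/632 nm) calculated as parallel + 2 × perpendicular.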
% is set by controls: 0 for no effect and ±100 for the full control effect; potency is the fitted concentration of half-maximal effect; tags give direction and shape of the fitted curve or compound fluorescence and quenching.

SMILES | fluorescence change, negative = quenching | Potency
COc1c(O)cc2oc(-c3ccc(O)c(O)c3)cc(=O)c2c1O | inactive: -22% | –
CN1C(=O)C(Cc2c[nH]c3ccccc23)NC1=S (centres undefined) | inactive: -1.13% | –
CCCn1c2ccccc2c2cnn(CC(=O)Nc3cc(C)c(Cl)cc3OC)c(=O)c21 | – | active: 20 µM [quencher]
O=c1cc(-c2ccccc2)oc2cc(O)c(O)c(O)c12 | – | inactive
COc1ccc(-n2c(=O)c3c(C)c(C)sc3n(Cc3ccc(F)cc3)c2=O)c(OC)c1 | inactive: -0.645% | –
O=C(CSc1nnc(SCc2ccccc2)s1)N/N=C/C=C\c1ccco1 | inactive: -21.2% | –
CC(=O)N[C@@H](CS)C(=O)O | – | inactive
CCN(CC)c1cccc(OC2=NS(=O)(=O)c3ccccc32)c1 | – | active: 44.7 µM [fluorescent]
Cc1nn(C)c2c1c(C(F)(F)F)cc(=O)n2C(C)C(=O)NCc1ccccc1Cl (centres undefined) | – | active: 316 µM [quencher]
Nc1nc2nc(-c3ccc(Cl)cc3)cc(C(F)(F)F)n2n1 | inactive: -0.814% | –
COc1ccccc1NC(=O)c1sc2nc(-c3cc4cc(Cl)ccc4oc3=O)[nH]c(=O)c2c1C | – | active: 17.8 µM [quencher]
C[C@H]1[C@H](C)CC[C@]2(C(=O)O)CC[C@]3(C)C(=CCC4[C@@]5(C)CC[C@H](O)C(C)(C)[C@@H]5CC[C@]43C)[C@H]12 (some centres undefined) | inactive: -0.682% | –
CC(=O)OC[C@@H]1O[C@@H](O/N=C2/C[C@@H](O)[C@@H](O)[C@@H]3[C@@H]4C(=O)N(C[C@@H]5CCCO5)C(=O)[C@H]4CC[C@@H]23)[C@H](OC(C)=O)[C@H](OC(C)=O)[C@@H]1OC(C)=O | inactive: 2.59% [at 11.2 µM] | –
O=C1Cc2c([nH]c3ccc(Br)cc23)-c2ccccc2N1 | – | inactive
O=S(=O)(Nc1cccc(Cl)c1)c1ccc2[nH]c3c(c2c1)CCCCCC3 | – | active: 126 µM [quencher]
NC[C@@H](O)c1ccc(O)c(O)c1 | inactive: -3.5% | –
O=C(NCc1cccc(F)c1)C1CCN(C(=O)c2sccc2-n2cccc2)CC1 | – | active: 25.1 µM [quencher]
Cc1ccc(Nc2nnc(-c3cc4c(ccc5ccccc54)oc3=O)s2)cc1 | – | active: 0.0316 µM [quencher]
NC(=O)C1CCCN1C(=O)C(Cc1cnc[nH]1)NC(=O)C1CCC(=O)N1 (centres undefined) | inactive: 1.85% | –
CC(=O)O[C@H]1C(=O)[C@@]2(C)C([C@H](OC(=O)c3ccccc3)[C@]3(O)C[C@H](OC(=O)[C@H](O)[C@@H](NC(=O)c4ccccc4)c4ccccc4)C(C)=C1C3(C)C)[C@]1(OC(C)=O)CO[C@@H]1C[C@@H]2O (some centres undefined) | inactive: -1.83% | –
CC[C@H](C)[C@H](NC(=O)[C@H](Cc1ccc(O)cc1)NC(=O)[C@@H](N)C(C)C)C(=O)N[C@@H](Cc1cnc[nH]1)C(=O)N1CCC[C@H]1C(=O)N[C@@H](Cc1ccccc1)C(=O)O | inactive: -6.71% | –
O=C(Cn1c(-c2cccs2)cc2ccccc21)N1CCN(c2ccccc2F)CC1 | – | active: 100 µM [quencher]
CCOc1ccc(CNC(=O)c2cnc3sc(N4CCOCC4)nn3c2=O)cc1OC | – | active: 2000 µM [quencher]
COC(=O)c1ccc(C(=O)OC)c(NC(=O)CN(c2ccccc2)S(=O)(=O)N(C)C)c1 | inactive: 1.18% | –
CCOc1cccc(CNCCNC(=O)c2nonc2N)c1 | inactive: -1.26% | –

SMILES | fluorescence change, negative = quenching | Potency
Nc1ccn([C@@H]2O[C@H](CO)[C@@H](O)C2O)c(=O)n1 (some centres undefined) | inactive: 3.23% | –
Cc1cc2nc3ccc(=[N+](C)C)cc-3sc2cc1N | – | active: 44.7 µM [fluorescent]
COc1cc(OC)cc(C(=O)Nc2ccc(S(=O)(=O)Nc3ncccn3)cc2)c1 | inactive: 1.45% | –
O=C1OC2(c3ccccc31)c1cc(I)c(O)c(I)c1Oc1c2cc(I)c(O)c1I | – | active: 39.8 µM [fluorescent]
COC(=O)[C@@H](c1ccccc1Cl)N1CCc2sccc2C1 | inactive: -0.598% | –
CN[C@@H]1[C@H](O[C@H]2[C@H](O[C@H]3[C@H](O)[C@@H](O)[C@H](N=C(N)N)[C@@H](O)[C@@H]3N=C(N)N)O[C@@H](C)[C@]2(O)C=O)O[C@@H](CO)[C@H](O)[C@H]1O | inactive: -0.208% | –
O=C(COC(=O)c1cc([N+](=O)[O-])ccc1NCCO)c1ccccc1 | – | active: 100 µM [quencher]
O=C(CCc1ccc(O)cc1)c1c(O)cc(O)cc1O[C@@H]1O[C@H](CO)[C@@H](O)[C@H](O)[C@H]1O | inactive: -2.86% | –
CCc1ccc2occ(CC(=O)Nc3c(C(=O)Nc4ccc(C)cc4)oc4ccccc34)c2c1 | – | active: 1120 µM [quencher]
NCCCCCCNS(=O)(=O)c1cccc2c(Cl)cccc12 | – | inactive
CCOC(=O)CC(NC(=O)Cn1nnc(-c2ccccc2F)n1)c1ccccc1Cl (centres undefined) | inactive: -1.78% | –
CNC1C(O)C(O)C(CO)O[C@H]1OC1C(O[C@@H]2C(O)C(O)[C@@H](N=C(N)N)C(O)C2N=C(N)N)OC(C)[C@]1(O)C=O (some centres undefined) | inactive: 1.5% | –
Cc1cccc(N2CCN(C(=O)C3CCN(c4ncnc5c4nc4n5CCCCC4)CC3)CC2C)c1 (centres undefined) | – | active: 20 µM [quencher]
O=C(Nc1cccc(F)c1)c1ccc(Br)o1 | inactive: -0.459% | –
CC(=O)OC[C@H]1O[C@@H](n2ncc(=O)[nH]c2=O)[C@H](OC(C)=O)[C@@H]1OC(C)=O | inactive: -0.203% | –
COc1ccc(/C=C2\CCn3c2nc2cc(C(=O)O)ccc2c3=O)cc1O | – | active: 0.316 µM [quencher]
CC1=C(/C=C/C(C)=C/C=C/C(C)=C/C(=O)O)C(C)(C)CCC1 | – | inactive
CCO/C([O-])=N/c1c[n+](N2CCOCC2)no1 | – | inactive
C[C@](N)(Cc1ccc(O)c(O)c1)C(=O)O | – | inactive
COc1ccc(S(=O)(=O)/N=C2/NC(=O)/C(=C\c3ccco3)S2)cc1 | inactive: -0.35% | –
Cc1ccc2oc(C(=O)Nc3ccc(S(=O)(=O)N(C)c4ccccc4)cc3)cc(=O)c2c1 | – | active: 100 µM [quencher]
CCCN(CCC)C(=O)Cn1c(=O)n(-c2ccc(CC)cc2)c(=O)c2c3c(sc21)CCC3 | – | active: 0.199 µM [quencher]
CCC(/C=C1\Sc2ccc(OC)cc2N1CCO)=C\c1sc2ccc(OC)cc2[n+]1CCO | – | active: 39.8 µM [fluorescent] and active: 50.1 µM [fluorescent]
O=S(=O)(O)c1ccc(N=Nc2cc(S(=O)(=O)O)c3ccccc3c2O)c2ccccc12 | – | active: 100 µM [fluorescent]
